Data reported in PubChem BioAssay AID588795 (National Center for Advancing Translational Sciences (NCATS), 2011).
Screen size: about 390,000 compounds; about 1,400 (0.36%) were called active. This list was built around the results that the source calls inconclusive (neither active nor inactive); the mix of calls is not that of the screen. The call rests on the fitted dose curve; in most records, active means well fitted inhibition curve with a large enough effect; inconclusive means small, poorly fitted or top-dose-only effect; inactive means no such curve, though single readings can be large or run the other way. A potency beside an inconclusive call is a rough fit, not a confirmed value.
Further: nearly all actives have a fitted effect of over 65% in size.
Potency means the concentration at half of the fitted maximal effect; tags describe the fitted curve by direction and shape.

What follows are compounds tested against Flap endonuclease 1 (Homo sapiens) (UniProt P39748) (assay: qHTS Assay for the Inhibitors of Human Flap endonuclease 1 (FEN1).). Settings: Recombinant FEN1 flap cleavage, fluorescence, 15 min; series mostly up to 114 µM.
Chain of UniProt P39748 (P39748 whole entry, looked up): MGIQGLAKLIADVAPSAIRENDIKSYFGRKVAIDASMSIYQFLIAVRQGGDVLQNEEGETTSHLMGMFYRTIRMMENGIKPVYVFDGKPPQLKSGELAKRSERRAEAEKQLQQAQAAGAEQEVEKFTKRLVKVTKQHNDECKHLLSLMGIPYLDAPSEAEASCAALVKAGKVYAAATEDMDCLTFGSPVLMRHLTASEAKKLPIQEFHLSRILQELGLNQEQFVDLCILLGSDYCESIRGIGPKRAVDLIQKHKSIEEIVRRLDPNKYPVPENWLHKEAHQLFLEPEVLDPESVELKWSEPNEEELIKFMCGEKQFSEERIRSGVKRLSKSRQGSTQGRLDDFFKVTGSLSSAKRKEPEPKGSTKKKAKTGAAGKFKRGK
Method in brief: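 FEN1 at 10 nM, compound pretreatment for 15 min (room temperature), 50 nM final substrate to initiate; endpoint reads at 0 and 15 min; DMSO-only plates used as vehicle background.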
For `COc1ccc(N2C(=O)/C(=C/C=C/c3ccccc3[N+](=O)[O-])C(=O)NC2=S)cc1`, the Potency was inconclusive: 50.1 µM [inhibitor, partial curve, poor fit].
For `COc1cc(/C=C/c2nc3ccccc3c(=O)n2-c2ccc(O)cc2)ccc1O`, the Potency was inconclusive: 56.2 µM [inhibitor, partial curve, poor fit].
For `COC(=O)[C@@H](c1ccccc1)C1CCCCN1` (some centres not stated), the Potency was inconclusive: 79.4 µM [inhibitor, partial curve, poor fit].
In the case of `O=C(N/N=C/c1c(O)n(Cc2ccccc2)c(=O)[nH]c1=O)c1ccccc1`, the Potency is reported as inconclusive: 44.7 µM [inhibitor, partial curve, poor fit].
In the case of `O=C(Nc1ccc(Br)cc1C(=O)O)c1ccc2c(c1)C(=O)N(Cc1ccccc1)C2=O`, the Potency is reported as inconclusive: 44.7 µM [inhibitor, partial curve, poor fit].
`Nc1c(C(=O)NCc2ccco2)c2nc3ccccc3nc2n1CCN1CCCCC1` was tested, and the Potency was inconclusive: 79.4 µM [inhibitor, single point].
`Cc1ccsc1/C=C1\C(=O)NC(=S)N(C)C1=O` was tested, and the Potency was active: 79.4 µM.
With `Cc1cccc(N2C(=O)NC(=O)/C(=C\c3ccc(N4CCOCC4)cc3)C2=O)c1` the Potency was “inactive”.
For `CC(=O)Nc1ccccc1C(=O)OCC(=O)c1cccc2ccccc12`, the Potency was inconclusive: 89.1 µM [inhibitor, partial curve, poor fit].
With `CN1C(=O)NC(=O)/C(=C\c2ccc([N+](=O)[O-])o2)C1=O` the Potency was active: 15.8 µM.
`CC1=NCCc2c1[nH]c1ccccc21` was tested, and the Potency was inconclusive: 28.2 µM [inhibitor, partial curve].
With `Cc1ccc(/C=C2\C(=O)NC(=O)N(Cc3ccccc3Cl)C2=O)o1` the Potency was inconclusive: 100 µM [inhibitor, single point].
In the case of `COc1cccc(N2C(=O)NC(=O)/C(=C/c3ccc4c(c3)Cc3ccccc3-4)C2=O)c1`, the Potency is reported as inconclusive: 56.2 µM [inhibitor, partial curve].
In the case of `CC(=NCCc1c[nH]c2ccccc12)c1c(O)n(Cc2ccccc2)c(=O)[nH]c1=O`, the Potency is reported as “inactive”.
For `Oc1ccccc1-[n+]1c(-c2ccccc2)cc(-c2ccccc2)c(O)c1-c1ccccc1`, the Potency was inconclusive: 89.1 µM [inhibitor, partial curve, poor fit].
`CCOc1cc(/C=C2\C(=O)NC(=O)N(CCc3ccc(F)cc3)C2=O)ccc1O` was tested, and the Potency was inconclusive: 50.1 µM [inhibitor, partial curve, poor fit].
For `COc1cc2c(cc1O)C[C@H]1NCCc3cc4c(c-2c31)OCO4`, the Potency was active: 10 µM.
`CNc1cc(Cl)c2nonc2c1[N+](=O)[O-]` was tested, and the Potency was active: 12.6 µM.
With `O=c1c2ccccc2nc(-c2ccco2)n1-c1nccs1` the Potency was inconclusive: 70.8 µM [inhibitor, partial curve, poor fit].
`CCCCc1nc2ccccc2c(=O)n1-c1cccc(OC)c1` was tested, and the Potency was inconclusive: 79.4 µM [inhibitor, partial curve, poor fit].
In the case of `CC(C)CC1C(C#N)=C(N)Oc2c1c(=O)oc1ccccc21` (configuration not stated), the Potency is reported as inconclusive: 89.1 µM [inhibitor, single point].
With `C[C@]12CCC3C(CC[C@H]4C[C@@H](O)CC[C@]34C)C1CC[C@@H]2OC(=O)[C@H](N)CCCCN` (some centres not stated) the Potency was inconclusive: 44.7 µM [inhibitor, partial curve].
`Cc1cc(/C=C2\C(=O)NC(=O)N(Cc3ccccc3)C2=O)c(C)n1-c1ccc(Cl)c(C(=O)O)c1` was tested, and the Potency was active: 79.4 µM.
For `CCNCCNc1ccc([N+](=O)[O-])c2cccnc12`, the Potency was inconclusive: 79.4 µM [inhibitor, partial curve, poor fit].
For `O=S(=O)(Nc1c(O)ccc2ccccc12)c1ccc(F)cc1`, the Potency was inconclusive: 79.4 µM [inhibitor, single point].
For `Cc1cccc(N2C(=O)/C(=C/c3ccc(CN(CCC#N)S(C)(=O)=O)o3)C(=O)NC2=S)c1`, the Potency was inconclusive: 56.2 µM [inhibitor, partial curve, poor fit].
`CN1C(=O)C(=Cc2ccccc2Oc2ccc(Cl)c(F)c2)C(=O)N(C)C1=O` was tested, and the Potency was “inactive”.
In the case of `Cc1ccc(CCNC(=O)c2cc3cc(S(=O)(=O)N4CCCCC4)ccc3n2C)cc1`, the Potency is reported as inconclusive: 89.1 µM [inhibitor, partial curve, poor fit].
In the case of `Cn1cccc1/C=C1\C(=O)NC(=O)N(Cc2ccco2)C1=O`, the Potency is reported as inconclusive: 50.1 µM [inhibitor, partial curve, poor fit].
With `NC(=O)Cn1cc(C=C2C(=O)NC(=O)NC2=O)c2ccccc21` the Potency was inconclusive: 89.1 µM [inhibitor, partial curve, poor fit].
For `C=CCN1C(=O)/C(=C/c2ccc(Br)s2)C(=O)NC1=S`, the Potency was inconclusive: 56.2 µM [inhibitor, partial curve, poor fit].
With `CC1=CC(=Cc2sc3ccccc3[n+]2C)C=C(C)O1` the Potency was inconclusive: 89.1 µM [inhibitor, single point].
With `O=C1NC(=O)N(Cc2ccccc2)C(=O)/C1=C/N1CCCc2ccccc21` the Potency was inconclusive: 28.2 µM [inhibitor, partial curve, poor fit].
In the case of `CCOc1ccc2nc(NC(=O)c3cccn(Cc4ccccc4C)c3=O)sc2c1`, the Potency is reported as “inactive”.
`Cc1cc(/C=C2\C(=O)NC(=O)N(c3ccc(Cl)cc3)C2=O)c(C)n1-c1cccc(C(=O)O)c1` was tested, and the Potency was inconclusive: 89.1 µM [inhibitor, partial curve, poor fit].
In the case of `CCN(CC)c1ccc(C=C2C(=O)NC(=S)NC2=O)cc1`, the Potency is reported as inconclusive: 89.1 µM [inhibitor, single point].
`C=CCc1cc(C=C2C(=O)N(C)C(=O)N(C)C2=O)cc(OCC)c1OCc1ccccc1` was tested, and the Potency was “inactive”.
For `CC[n+]1c(/C=C/N(C)c2ccccc2)sc2ccc(Cl)cc21`, the Potency was inconclusive: 56.2 µM [inhibitor, partial curve].
In the case of `NC(CP(=O)(O)O)C(=O)O` (configuration not stated), the Potency is reported as inconclusive: 8.44 µM [inhibitor, partial curve, poor fit].
With `CC1(C)c2[nH]c3ccccc3c2C[C@@H]2C(=O)N(Cc3ccccc3F)C(=O)N21` the Potency was inconclusive: 79.4 µM [inhibitor, partial curve, poor fit].
For `CCC(=O)Nc1cc(C(=O)O)ccc1S(=O)(=O)c1ccc(C)cc1`, the Potency was inconclusive: 79.4 µM [inhibitor, partial curve, poor fit].
In the case of `Cc1ccc(N2C(=O)NC(=O)/C(=C\c3ccc(N4CCOCC4)cc3)C2=O)cc1`, the Potency is reported as “inactive”.
`COc1ccc(NC(=O)Nc2cccc3cccnc23)cc1` was tested, and the Potency was inconclusive: 89.1 µM [inhibitor, partial curve, poor fit].
`O=C(O)c1ccc(-n2c(O)c(/C=C3\C=Nc4ccccc43)c(=O)[nH]c2=O)cc1` was tested, and the Potency was inconclusive: 89.1 µM [inhibitor, single point].
In the case of `Cc1cc2ccccc2n1CCNC(=O)COc1ccccc1`, the Potency is reported as inconclusive: 35.5 µM [inhibitor, partial curve, poor fit].
`COc1cc2c(cc1O)CC[n+]1cc3c(OC)c(OC)ccc3cc1-2` was tested, and the Potency was inconclusive: 31.6 µM [inhibitor, partial curve].
For `O=c1cc(C2CCNCC2)[nH][nH]1`, the Potency was “inactive”.
For `Cc1nccc2c1[nH]c1ccc(Br)cc12`, the Potency was inconclusive: 28.2 µM [inhibitor, partial curve, poor fit].
With `CCN(CC)c1ccc(/C=C2\C(=O)NC(=O)N(CC3CCCO3)C2=O)cc1` (configuration not stated) the Potency was inconclusive: 50.1 µM [inhibitor, partial curve].
`CNS(=O)(=O)c1ccc(-c2ccc(C=C3C(=O)NC(=O)NC3=O)o2)cc1` was tested, and the Potency was inconclusive: 79.4 µM [inhibitor, single point].
With `O=C1c2ccccc2-c2cc3ccccc3cc21` the Potency was inconclusive: 35.5 µM [inhibitor, full curve].
With `COc1ccc(N2C(=O)NC(=O)/C(=C\c3cn(CC(=O)N4CCOCC4)c4ccccc34)C2=O)c(OC)c1` the Potency was inconclusive: 15.8 µM [inhibitor, partial curve, poor fit].
In the case of `CCN(CC)c1ccc(/C=C2/C(=O)NC(=O)N(Cc3ccco3)C2=O)cc1`, the Potency is reported as inconclusive: 89.1 µM [inhibitor, partial curve, poor fit].
`CCCCN1C(=O)/C(=C/C=C/c2ccco2)C(=O)NC1=S` was tested, and the Potency was active: 25.1 µM.
`CC(C)(C)c1cc(C=C(C#N)C#N)cc(C(C)(C)C)c1O` was tested, and the Potency was inconclusive: 5.32 µM [inhibitor, single point].
`COc1cc(C2c3cc4c(c(O)c3CC3COC(=O)C32)OCO4)cc(OC)c1O` (configuration not stated) was tested, and the Potency was inconclusive: 15.8 µM [inhibitor, full curve].
In the case of `COc1ccc(-n2c(=O)[nH]c3ccccc3c2=O)cc1`, the Potency is reported as “inactive”.
For `NC(N)=Nc1ccc2[nH]c3c(c2c1)C[C@@]1(O)[C@H]2Cc4ccc(O)c5c4[C@@]1(CCN2CC1CC1)[C@H]3O5`, the Potency was active: 50.1 µM.
In the case of `COc1ccc2nc3c(C)n(C)ccc-3c2c1`, the Potency is reported as inconclusive: 44.7 µM [inhibitor, partial curve, poor fit].
With `COC(=O)C1=C(c2ccc(-c3ccccc3)c(F)c2)C[C@@H]2CC[C@H]1N2C(=O)NCc1ccco1` the Potency was inconclusive: 56.2 µM [inhibitor, partial curve, poor fit].
For `O=C1c2cc([N+](=O)[O-])ccc2-c2ncccc21`, the Potency was inconclusive: 10 µM [inhibitor, partial curve, poor fit].
For `CCCCCCC(C)(C)c1ccc([C@@H]2C[C@H](O)CC[C@H]2CCCO)c(O)c1`, the Potency was inconclusive: 56.2 µM [inhibitor, partial curve, poor fit].
